Data from paper PMC3240821 (Structure (London, England : 1993), 2011).

Target: T1, recombinant Ex-FABP (Gallus gallus, UniProt P21760)
T1 sequence (P21760 23-178): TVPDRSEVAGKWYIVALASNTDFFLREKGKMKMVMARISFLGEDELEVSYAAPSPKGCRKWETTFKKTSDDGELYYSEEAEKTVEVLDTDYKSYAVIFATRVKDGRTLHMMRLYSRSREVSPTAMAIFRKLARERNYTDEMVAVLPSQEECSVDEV
Assay: Fluorescence quenching
Type: binding, chicken
Details: protein 100 nM in TBS pH 7.4; detection threshold KD ≤ 600 nM

Substance | Kd
ferric pyochelin [[Fe^III(Pyochelin)2]^1−] | > 0.6 µM
pyoverdine [[Fe^III(Pyoverdine)]^1−] | > 0.6 µM
